This is an account of results in PubChem BioAssay AID504650 (Molecular Libraries Program, Specialized Chemistry Center, …, 2011).

As a reminder, the IC50 is the concentration that inhibits the measured activity by half. Low readings indicate greater potency in that assay, high ones weaker potency in that assay.

For part of its entries the source gives two or more results. They are shown here; other results are not. There may be further records. Results that share an entry repeat one measurement across runs, samples, wells, individuals or studies. Brackets tell where a record comes from. Letters hold for one entry only.

The assay deals with Transitional endoplasmic reticulum ATPase (Homo sapiens) (UniProt P55072). The assay can be described thus: p97 ATPase activity inhibitors, SAR follow-up, biochemical, dose response, round 3 (AID 504650). The conditions noted are these: purified p97 ATPase, Kinase-Glo luminescence. Put shortly: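 Material: human p97 ATPase protein; medium: Tris buffer pH 7.4 containing MgCl2 and EDTA; also added: ATP, 500 µM stock solution; timing: 10 min room-temperature preincubation, 30 min ATP reaction at 37 °C; measured by: luminescent readout of unconsumed ATP (Kinase-Glo Plus); evaluation: IC50 from fit of percent remaining activity versus compound concentration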
Chain of UniProt P55072 (P55072 whole entry, looked up): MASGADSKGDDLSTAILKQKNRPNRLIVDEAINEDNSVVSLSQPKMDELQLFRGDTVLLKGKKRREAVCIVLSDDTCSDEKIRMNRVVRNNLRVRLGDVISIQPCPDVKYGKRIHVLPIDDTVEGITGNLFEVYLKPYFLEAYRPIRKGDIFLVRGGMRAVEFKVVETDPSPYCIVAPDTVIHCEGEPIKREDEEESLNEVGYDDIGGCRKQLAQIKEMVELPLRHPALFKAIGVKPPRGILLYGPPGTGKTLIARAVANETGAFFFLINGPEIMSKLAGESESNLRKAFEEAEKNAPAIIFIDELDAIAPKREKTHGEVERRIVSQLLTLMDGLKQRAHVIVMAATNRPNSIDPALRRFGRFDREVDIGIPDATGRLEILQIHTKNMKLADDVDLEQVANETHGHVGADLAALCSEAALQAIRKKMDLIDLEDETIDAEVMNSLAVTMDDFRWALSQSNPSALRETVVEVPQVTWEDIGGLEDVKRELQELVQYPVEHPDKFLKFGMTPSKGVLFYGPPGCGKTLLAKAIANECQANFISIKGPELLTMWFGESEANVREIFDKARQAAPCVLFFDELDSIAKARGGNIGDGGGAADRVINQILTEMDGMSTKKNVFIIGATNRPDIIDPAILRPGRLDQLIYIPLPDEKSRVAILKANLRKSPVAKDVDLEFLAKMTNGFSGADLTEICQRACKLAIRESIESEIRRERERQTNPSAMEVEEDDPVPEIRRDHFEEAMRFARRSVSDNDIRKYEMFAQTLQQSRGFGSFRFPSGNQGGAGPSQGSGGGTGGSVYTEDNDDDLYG

Consider `COc1cccc2c(NCc3ccccc3)nc(-n3c(N)nc4c(F)cccc43)nc12`, for which the concentration for half-maximal inhibition (IC50) was 43 nM [sample A] and 500 nM [sample B].
